This note sets out measurements from the RNAGym collection of RNA variant scans (doi:10.1073/pnas.2313332121).

First the molecules themselves.
B1: TPR 5TU (parent)
chain: GGAUCUUCUCGAUCUAACAAAAAAGACAAAUCUGCCACAAAGCUUGAGAGCAUCUUCGGAUGCAGAGGCGGCAGCCUUCGGUGGCGCGAUAGCGCCAACGUUCUCAACUAUGACACGCAAAACGCGUGCUCCGUUGAAUGGAGUUUAUCAUG

This sample is rich in variants without activity.

The variants in the data set derive from B1. Briefly: polymerase ribozyme fitness, log enrichment relative to wild type (log ratio); higher = more active; in vitro selection for triplet polymerase activity. The method in brief: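 Frozen incubation at −7 °C formed the core of a single, triplicate in vitro selection round applied to PCR-built, transcribed mutant libraries of each subunit of a heterodimeric triplet polymerase ribozyme. Extended constructs were gel-excised, captured with streptavidin beads and amplified by RT-PCR, and input and output libraries were Illumina-sequenced with a filter of ≥10 input reads and ≥1 read per output. Fitness is the logarithm of genotype enrichment relative to wild-type enrichment, with inverse-variance-weighted replicate averaging, and the logarithm is base 2.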
For GGAUCUUCUCGAUCUAACAAAAAAGACAUAUCUGCCACAAAGCUUGAGAGCAUCUUCGGAUGCAGAGGCGGCAGCCUUCGGUGGCGCGAUAGCGCCUACGUUCUCAACUAUGACUCGCAAAACCCGUGCUCCGCUGAAUGGAGUUUAACAUG [A29U A97U A115U G124C U134C U148A], the “polymerase ribozyme fitness (log ratio)” value was not above -4.2. With GGAUCUUCUCGAUCUAACAAAAAAGACAUAUCUGCCACAAAGCUUGAGAACAUCUUCCGAUGCAGAGGCGGCAGCCUUCGGUGGCGCGAUAGCGUCAACGUUCUUAACUAUGACACCCAAAACGCGUGCUCCGUUGAAUGGAGUUUAUCAUG [A29U G50A G58C C95U C105U G117C], the “polymerase ribozyme fitness (log ratio)” value was not above -4.2. GGAUCUUCUCGAUCUAACAAAAAAGACAUAUCUGCCACAAAGCUUGAGAGCGUCUUCGGAUGCAGAGGCGGCUGCCUUCGGUGGCGCGAUCACGCCAACGUUCUCAACUAUGACACGCAAAACGCGUGCACCGUUGAAUGGAGUUUAUCAUG [A29U A52G A73U A91C G92A U130A]: the “polymerase ribozyme fitness (log ratio)” value is not above -4.2.

For GGAUCUUCUCGAUCUAACAAAAAAGACAUAUCUGCCACAAAGCUUGAGCGCAUCUUCGGAUGCAGAGGCGGCAGCCUUAGUUGGCGCGAUAGCGUCAACGUCCUAAACUAUGGCACUCAAAACGCGUGCUCCGUUGAAUGGAGUUUAUCAUG [A29U A49C C79A G81U C95U U102C C105A A113G G117U], the “polymerase ribozyme fitness (log ratio)” value was not above -4.2. To GGAUCUUCUCGAUCUAACAAAAAAGACAUAUCUGCCACAAAGCUUGAAAGCAUCUUCGGAUGCAGAGGCGGCGGCCUUCGGUGGCGCGAUCGCGCCAACGUUCUCAACUAUGACACGCAAAACGCGUGCUCCGUUGAAUGGAGUUUAUCAUG [A29U G48A A73G A91C] belongs not above -4.2; to GGAUCUUCUCGAUCUAACAAAAAAGACAUAUCUGCCACAAAGCUUGACAGCAUCUUCGGAUGCAGAGGCGGCAGACUUCGGUGGCGCGAUAGCGCCAACGUUCUCAACUAUGACACGCAAAACCCGUGCUCCGUUGAAUGGAGAUUAUCAUG [A29U G48C C75A G124C U144A], not above -4.2; to GGAUCUUCUCGAUCUAACAAAAAAGACAUAUCUGCCACAAAGCUUGAGAGCAUCUUCGGAUGCUGAGGCGGCAGCCUUCGGUGGCGCGAUAGCGUCAACGUUCUCAACUAUGAGACGCAAAACGCGUGCUCCGUUGAAUGGAGUUUAUCAUG [A29U A64U C95U C114G], not above -4.2. With GGAUCUUCUCGAUCUAACAAAAAAGACAUAUCUGCCACAAAGCUUGAGAGCAUCUUUGUAUGCAGAGGCGGCAGCCUUCGGUGGCGCGAUAGUGCCAACGUUAUCAACUAUGACACGCAAAACGCGUGCUCCGUUGAAUGCAGAUUAUCAUG [A29U C57U G59U C93U C103A G141C U144A], the “polymerase ribozyme fitness (log ratio)” value was not above -4.2. Consider GGAUCUUCUCGAUCUAACAAAAAAGACAUAUCUGCCACAAAGCUUGAGAGCAUCUUCGGAUGCAGAGGCGGCAGCCUUCGGUGGAGCGAUAGCGCCAACGUUCUCAACUAUUACACGCAAAACGCGUGCUCCGUUGAAUGGAGUUUAUCAUG [A29U C85A G112U], for which the “polymerase ribozyme fitness (log ratio)” value was not above -4.2. On to GGAUCUUCUCGAUCUAACAAAAAAGACAUAUCUGCCACAAAGCUUGAGAGCAUCUUGGGAUGCAGAGACGGCAGCCUUCGGUGGCGGGAUUGCGCCAACGUUCUCAACUAUGACACGCAAAACGCGUGCUCCGUUGAAUGGAUUUCAUCAUG [A29U C57G G68A C87G A91U G143U U146C], for which the “polymerase ribozyme fitness (log ratio)” value is not above -4.2.

Consider GGAUCUUCUCGAUCUAACAAAAAAGACAUAUCUGCCAGAAAGCUUGGGAGCAUCUUCGGAAGCAUAGGCGGCAGCCUUCGGUGGCGCGAUAACGCCAACGUUCUCAACUAUGACACGCAAAACGCGUGCUCCGUUGAAUGGAGUUAAUCAUG [A29U C38G A47G U61A G65U G92A U146A], for which the “polymerase ribozyme fitness (log ratio)” value is not above -4.2. As for GGAUCUUCUCGAUCUAACAAAAAAGACAUAUCUGACACAAAGCUUGAGAGCAUCUUCGGGUGCAGAGGCGGCAGCCUUCGGUGGAGCGAUAGCGCCAACGUUCUCAACUAUGACACGCAAAACGCAUGCUCCGUUGAAUGGAGUUUAUCAUG [A29U C35A A60G C85A G126A], the figure is not above -4.2; as for GGAUCUUCUCGAUCUAACAAAAAAGACAUAUAUGCCACAAAGCUUAAGAGCAUCUUCGGAUGCAGAGACGGCAGCCUUCGGUAGCGCGAGAGCGCCAACGUUCUCAACUAUGACACGCAAAACGCGUGCUCCGUUGAAUGGAGUUUAUGAUG [A29U C32A G46A G68A G83A U90G C149G], not above -4.2; as for GGAUCUUCUCGAUCUAACAAAAAAGACAUAUCUGCCACAAAGCUUGAGAGCAUCUUCGGAUGCAGAGGCGGCAGCCUUCGGUGGCGCGAUAGCGCCAAGGUUCUCAACUAUGACACUCAAAACGCGUGCUCCGUUGAAUGGAGUUUAUCAUG [A29U C99G G117U], not above -4.2. On to GGAUCUUCUCGAUCUAACAAAAAAGACAUAUCUGCCACAAAGCUUGAGAGCAUCUUCGGAUGCAGAGGCGGCAGCCUUCGGUGGCGCGAUAGCGCUAACGUUCUCCACUAUGACACGCAAAACGCGGGCUCCGUUGAAUGGAGUUUAUCAUG [A29U C96U A106C U127G], for which the “polymerase ribozyme fitness (log ratio)” value was not above -4.2. For GGAUCUUCUCGAUCUAACAAAAAAGACAUAUCUGCCACAAAGCUUGAGAGCCUCUUUGGAUGCAGAGGCGGCAGCCUUCGGUGGCGCGAUAGCGUCAACGUUCUCAACUAUGACACGCAUAACGUGUGCUCCGUUGAAUGGAGUUUAUCAUG [A29U A52C C57U C95U A120U C125U], the “polymerase ribozyme fitness (log ratio)” value was not above -4.2.

In the case of GGAUCUUCUCGAUCUAACAAAAAAGACAUAUCUGCCACAAAGCUUGAGCGCAUCUUCGGAUGCAGAGGCGGCAGCCUUCGGUGGCGCGAUAGCGACAACGUUCUCAACUAUGACACGCAUAACUCGUGCUCCGUUGAAUGGAGUUUAUCAUG [A29U A49C C95A A120U G124U], the “polymerase ribozyme fitness (log ratio)” value was not above -4.2. To GGAUCUUCUCGAUCUAACAAAAAAGACAUAUCUGCCACAAAGCUUGAGAGGAUCUUCGGAUGCAGAGACGGCAGCCUUCGGUGGCGCGAUAGGGCCAACGUUCUCAACUAUGACACGCAAAACGCGUGCUCCGUUGAAUGGAGUUUAUCAUG [A29U C51G G68A C93G] belongs not above -4.2. As for GGAUCUUCUCGAUCUAACAAAAAAGACAUAUCUGCCACAAAGCUUGAUAGCAUCUACGGAUGCAGCGGCGGCAGCCUUCGGUGGCGCGAUAGCGCAGACGUUCUCAACUAUGACACGCAUAACGCGUGCUCCGUUGAAUGGAGUUUAUCAUG [A29U G48U U56A A66C C96A A97G A120U], the “polymerase ribozyme fitness (log ratio)” value was not above -4.2.
